Target: T1, HscA (E. coli, UniProt P0A6Z1 1-616)
T1 construct: HscA, Hsp70 of E. coli specialized in FeS biogenesis; expressed from pTrcHscA; no tag is named; also called specialized bacterial Hsp70 HscA; source: E. coli DH5α with pTrcHscA, purified (Q-sepharose, Phenyl Sepharose)
T1 sequence (looked up): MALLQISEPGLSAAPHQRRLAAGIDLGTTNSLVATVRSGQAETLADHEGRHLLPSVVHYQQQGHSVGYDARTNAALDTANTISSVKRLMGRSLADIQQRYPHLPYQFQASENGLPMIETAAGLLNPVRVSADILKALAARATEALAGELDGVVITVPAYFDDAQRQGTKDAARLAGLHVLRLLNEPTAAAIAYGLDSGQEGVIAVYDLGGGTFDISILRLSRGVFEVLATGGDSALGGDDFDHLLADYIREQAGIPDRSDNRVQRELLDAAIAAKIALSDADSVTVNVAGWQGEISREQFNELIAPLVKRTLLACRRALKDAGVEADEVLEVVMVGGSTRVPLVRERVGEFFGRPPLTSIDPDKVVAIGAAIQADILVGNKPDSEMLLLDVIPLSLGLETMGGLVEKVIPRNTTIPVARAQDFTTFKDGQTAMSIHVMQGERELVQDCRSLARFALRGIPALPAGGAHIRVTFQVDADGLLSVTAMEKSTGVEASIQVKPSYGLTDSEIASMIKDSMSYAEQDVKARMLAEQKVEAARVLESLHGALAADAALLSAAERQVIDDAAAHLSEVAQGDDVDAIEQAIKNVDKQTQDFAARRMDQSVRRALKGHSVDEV
Test: pull-down; IscU-GST at fixed concentration incubated with increasing HscA, 4 mM ATP, PD buffer, 30 min at 30 °C, then glutathione resin; SDS-PAGE, Coomassie, densitometry
Conditions: both partners purified

B1: IscU-GST (natural protein, E. coli, UniProt P0ACD4 1-128, looked up)
chain: MAYSEKVIDHYENPRNVGSFDNNDENVGSGMVGAPACGDVMKLQIKVNDEGIIEDARFKTYGCGSAIASSSLVTEWVKGKSLDEAQAIKNTDIAEELELPPVKIHCSILAEDAIKAAIADYKSKREAK
notes: IscU, FeS scaffold protein of E. coli; expressed from pET3aIscU-GST; also called IscU-GST fusion protein; source: E. coli C41(DE3) with pET3aIscU-GST, purified (glutathione agarose)
binding result: binds

Source: paper PMC7247549, “Biochemical Convergence of Mitochondrial Hsp70 System Specialized in Iron–Sulfur Cluster Biogenesis” (International Journal of Molecular Sciences, 2020)
